Reference: a collection of fitness landscapes (doi:10.1016/j.celrep.2020.107928)
Over roughly 81,000 sequences, “one-hybrid fitness for binding parS DNA” has its median near -0.17; the highest 2% begin near 0.51. The list shows a part of the results.

B1: Caulobacter ParB omega fusion; a variant is named by its letters at X, in order, B8GW30 (parent)
chain: MESVVVGEPGMSEGRRGLGRGLSALLGEVDAAPAQAPGEQLGGSREAPIEILQRNPDQPRRTFREEDLEDLSNSIREKGVLQPILVRPSPDTAGEYQIVAGERAWRAAQRAGLKTVPIMVRELDDLAVLEIGIIENVQRADLNVLEEALSYKVLMEKFERTQENIAQTIGKSXSHVANXMRLLXLPDEVQSYLVSGELTAXHARAIAAAADPVALAKQIIEGGLSVRETEALARKAPNLSAGKSKGGRPPRVKDTDTQALESDLSSVLGLDVSIDHRGSTGTLTITYATLEQLDDLCNRLTRGI

Variants of: B1
Assay: one-hybrid fitness for binding parS DNA (scaled: cognate 1, non-cognate 0); higher = stronger binding
Details: with parS DNA site
Method in brief: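 Fitness here means the log change in variant-to-wild-type read ratio between plasmids sequenced before and after selection. That scale was set so cognate equals 1 and non-cognate equals 0. The selection was a bacterial one-hybrid screen of Caulobacter ParB libraries, four specificity codons randomised, in E. coli USO carrying a HIS3 reporter with the site 19 bp from the promoter, grown 48 hours at 37°C on M9-minus-histidine with 0.1 mM IPTG and 5 mM 3-AT.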

| Variant | one-hybrid fitness for binding parS DNA |
| --- | --- |
| PLSH | ≤ 0.2 |
| RYIP | ≤ 0.2 |
| RRKI | 0.313 |
| LVRY | ≤ 0.2 |
| RCDI | ≤ 0.2 |
| AESG | ≤ 0.2 |
| LVWS | ≤ 0.2 |
| AGVD | ≤ 0.2 |
| VGAR | ≤ 0.2 |
| ETQW | ≤ 0.2 |
| DAVS | ≤ 0.2 |
| ENWS | ≤ 0.2 |
| TLPI | ≤ 0.2 |
| YQDS | ≤ 0.2 |
| QSTF | ≤ 0.2 |
| LHAR | ≤ 0.2 |
| PVFF | ≤ 0.2 |
| TGST | ≤ 0.2 |
| FMQG | ≤ 0.2 |
| WSNT | ≤ 0.2 |
| IVKC | ≤ 0.2 |
| WFHS | ≤ 0.2 |
| HPVG | ≤ 0.2 |
| LGHA | ≤ 0.2 |

| Variant | one-hybrid fitness for binding parS DNA |
| --- | --- |
| GCHG | ≤ 0.2 |
| LAKW | ≤ 0.2 |
| KMWD | ≤ 0.2 |
| PSQA | ≤ 0.2 |
| QYGL | ≤ 0.2 |
| YARH | ≤ 0.2 |
| MDNT | ≤ 0.2 |
| ADKD | ≤ 0.2 |
| QNVG | ≤ 0.2 |
| KTYH | ≤ 0.2 |
| THNW | ≤ 0.2 |
| PHHA | ≤ 0.2 |
| MNRQ | ≤ 0.2 |
| QFEE | ≤ 0.2 |
| RRFT | 0.623 |
| QRIT | ≤ 0.2 |
| GATG | ≤ 0.2 |
| RFST | 0.841 |
| PGSN | ≤ 0.2 |
| MCIC | ≤ 0.2 |
| RKEF | ≤ 0.2 |
| MCYT | ≤ 0.2 |
| DHTM | ≤ 0.2 |
| SIQG | ≤ 0.2 |

| Variant | one-hybrid fitness for binding parS DNA |
| --- | --- |
| KGAH | ≤ 0.2 |
| RDGC | ≤ 0.2 |
| SLEM | ≤ 0.2 |
| DHNA | ≤ 0.2 |
| FPVT | ≤ 0.2 |
| WVHC | ≤ 0.2 |
| SIFQ | ≤ 0.2 |
| VRPI | ≤ 0.2 |
| AEHM | ≤ 0.2 |
| TLPR | ≤ 0.2 |
| MKCY | ≤ 0.2 |
| AHMG | ≤ 0.2 |
| PEKR | ≤ 0.2 |
| ISCS | ≤ 0.2 |
| QSQK | ≤ 0.2 |
| RGAT | 0.524 |
| GYQM | ≤ 0.2 |
| HCLC | ≤ 0.2 |
| LPNQ | ≤ 0.2 |
| CLKS | ≤ 0.2 |
| MVAV | ≤ 0.2 |
| QANV | ≤ 0.2 |
| AVCE | ≤ 0.2 |
| HACL | ≤ 0.2 |

| Variant | one-hybrid fitness for binding parS DNA |
| --- | --- |
| ALQM | ≤ 0.2 |
| CGSW | ≤ 0.2 |
| HSQK | ≤ 0.2 |
| WMAR | ≤ 0.2 |
| EVQG | ≤ 0.2 |
| QWTA | ≤ 0.2 |
| WQST | ≤ 0.2 |
| LCNS | ≤ 0.2 |
| QMQN | ≤ 0.2 |
| SMKD | ≤ 0.2 |
| DENK | ≤ 0.2 |
| SFLH | ≤ 0.2 |
| RWHF | ≤ 0.2 |
| RYTP | ≤ 0.2 |
| HRKL | ≤ 0.2 |
| CLTC | ≤ 0.2 |
| VYIT | ≤ 0.2 |
| CLRY | ≤ 0.2 |
| QRAI | ≤ 0.2 |
| GPMR | ≤ 0.2 |
| SADY | ≤ 0.2 |
| PQMC | ≤ 0.2 |
| PIMY | ≤ 0.2 |
| LWWF | ≤ 0.2 |

| Variant | one-hybrid fitness for binding parS DNA |
| --- | --- |
| NNID | ≤ 0.2 |
| IWLR | ≤ 0.2 |
| MLIS | ≤ 0.2 |
| QHRM | ≤ 0.2 |
| STWV | ≤ 0.2 |
| KGCA | ≤ 0.2 |
| LAVV | ≤ 0.2 |
| RISR | ≤ 0.2 |
| HVII | 0.244 |
| MFRC | ≤ 0.2 |
| QWEC | ≤ 0.2 |
| EPRT | ≤ 0.2 |
| FECG | ≤ 0.2 |
| TANG | ≤ 0.2 |
| LCTC | ≤ 0.2 |
| GWTR | ≤ 0.2 |
| RWPM | ≤ 0.2 |
| QGAW | ≤ 0.2 |
| HRGN | ≤ 0.2 |
| PNIR | ≤ 0.2 |
| VPHS | ≤ 0.2 |
| MPRM | ≤ 0.2 |
| MPTT | ≤ 0.2 |
| KSGL | ≤ 0.2 |

| Variant | one-hybrid fitness for binding parS DNA |
| --- | --- |
| PPAS | ≤ 0.2 |
| NFCC | ≤ 0.2 |
| YLCE | ≤ 0.2 |
| PSCG | ≤ 0.2 |
| LITR | ≤ 0.2 |
| RKSA | 0.717 |
| CHVG | ≤ 0.2 |
| LDLK | ≤ 0.2 |
| MNSL | ≤ 0.2 |
| PPML | ≤ 0.2 |
| EVLS | ≤ 0.2 |
| NCNL | ≤ 0.2 |
| YFDP | ≤ 0.2 |
| WSMN | ≤ 0.2 |
| VTME | ≤ 0.2 |
| DMKR | ≤ 0.2 |
| SKMS | ≤ 0.2 |
| EAPH | ≤ 0.2 |
| CPLY | ≤ 0.2 |
| SWVN | ≤ 0.2 |
| IFAW | ≤ 0.2 |
| YCMS | ≤ 0.2 |
| KLCS | ≤ 0.2 |
| WTIS | ≤ 0.2 |

| Variant | one-hybrid fitness for binding parS DNA |
| --- | --- |
| PADR | ≤ 0.2 |
| RYRG | 0.92 |
| MKCG | ≤ 0.2 |
| KIFG | ≤ 0.2 |
| NIHV | ≤ 0.2 |
| NKDV | ≤ 0.2 |
| GNTV | ≤ 0.2 |
| WLLR | ≤ 0.2 |
| VTSQ | ≤ 0.2 |
| ITTA | ≤ 0.2 |
| TELD | ≤ 0.2 |
| QNSN | ≤ 0.2 |
| YPCS | ≤ 0.2 |
| SYQF | ≤ 0.2 |
| TQCG | ≤ 0.2 |
| WCRS | ≤ 0.2 |
| AAAE | ≤ 0.2 |
| IARV | ≤ 0.2 |
| SSNL | ≤ 0.2 |
| QTQH | ≤ 0.2 |
| DDGG | ≤ 0.2 |
| RPKN | ≤ 0.2 |
| MFKS | ≤ 0.2 |
| HRFQ | ≤ 0.2 |

| Variant | one-hybrid fitness for binding parS DNA |
| --- | --- |
| AGKN | ≤ 0.2 |
| ILHY | ≤ 0.2 |
| TGAS | ≤ 0.2 |
| FIFL | ≤ 0.2 |
| QDCL | ≤ 0.2 |
| RVWP | ≤ 0.2 |
| PGAT | ≤ 0.2 |
| HLDR | ≤ 0.2 |
| DQRY | ≤ 0.2 |
| IKSL | ≤ 0.2 |
| HGLT | ≤ 0.2 |
| DTIG | ≤ 0.2 |
| HTSE | ≤ 0.2 |
| AWKG | ≤ 0.2 |
| GGMS | ≤ 0.2 |
| AQGA | ≤ 0.2 |
| AQGR | ≤ 0.2 |
| QFNE | ≤ 0.2 |
| VICR | ≤ 0.2 |
| DNHG | ≤ 0.2 |
| TIDY | ≤ 0.2 |
| IWTT | ≤ 0.2 |
| REMC | ≤ 0.2 |
| WPPN | ≤ 0.2 |

| Variant | one-hybrid fitness for binding parS DNA |
| --- | --- |
| FPNS | ≤ 0.2 |
| FGGN | ≤ 0.2 |
| GTQS | ≤ 0.2 |
| YHAR | ≤ 0.2 |
| HVYG | ≤ 0.2 |
| LVAT | ≤ 0.2 |
| KCST | ≤ 0.2 |
| MCSE | ≤ 0.2 |
| YRDR | ≤ 0.2 |
| LMTK | ≤ 0.2 |
| TLKT | ≤ 0.2 |
| ILHF | ≤ 0.2 |
| PDPP | ≤ 0.2 |
| METE | ≤ 0.2 |
| KKLR | ≤ 0.2 |
| MTDT | ≤ 0.2 |
| MITD | ≤ 0.2 |
| PTYY | ≤ 0.2 |
| ESHY | ≤ 0.2 |
| TARY | ≤ 0.2 |
| PHST | ≤ 0.2 |
| QFRY | ≤ 0.2 |
| KWKI | ≤ 0.2 |
| VQNC | ≤ 0.2 |

| Variant | one-hybrid fitness for binding parS DNA |
| --- | --- |
| HTIG | ≤ 0.2 |
| NSTT | ≤ 0.2 |
| DPWI | ≤ 0.2 |
| GYLS | ≤ 0.2 |
| MTHC | ≤ 0.2 |
| LLAA | ≤ 0.2 |
| HPAV | ≤ 0.2 |
| SNCE | ≤ 0.2 |
| IRKY | ≤ 0.2 |
| VVMT | ≤ 0.2 |
| NPYR | ≤ 0.2 |
| VNDC | ≤ 0.2 |
| CPTW | ≤ 0.2 |
| NRMF | ≤ 0.2 |
| TERF | ≤ 0.2 |
| SLTG | ≤ 0.2 |
| AKTY | ≤ 0.2 |
| QGLT | ≤ 0.2 |
| TIIL | ≤ 0.2 |
| HQHH | ≤ 0.2 |
| VVYS | ≤ 0.2 |
| QRSD | ≤ 0.2 |
| DRYS | ≤ 0.2 |
| ERWG | ≤ 0.2 |

| Variant | one-hybrid fitness for binding parS DNA |
| --- | --- |
| CKQT | ≤ 0.2 |
| FCRR | ≤ 0.2 |
| GVIR | ≤ 0.2 |
| VEGN | ≤ 0.2 |
| WYYG | ≤ 0.2 |
| YYTR | ≤ 0.2 |
| RLQR | ≤ 0.2 |
| SSHF | ≤ 0.2 |
| MCNT | ≤ 0.2 |
| CQAC | ≤ 0.2 |
| ALCS | ≤ 0.2 |
| QDLH | ≤ 0.2 |
| PTDC | ≤ 0.2 |
| GECR | ≤ 0.2 |
| LSQN | ≤ 0.2 |
| FKST | ≤ 0.2 |
| LKTM | ≤ 0.2 |
| LGDV | ≤ 0.2 |
| YYQP | ≤ 0.2 |
| HHTK | ≤ 0.2 |
| HSQT | ≤ 0.2 |
| MIGG | ≤ 0.2 |
| VLAS | ≤ 0.2 |
| RIIF | ≤ 0.2 |

| Variant | one-hybrid fitness for binding parS DNA |
| --- | --- |
| SANW | ≤ 0.2 |
| WFLC | ≤ 0.2 |
| TCSS | ≤ 0.2 |
| IQKC | ≤ 0.2 |
| RYTD | ≤ 0.2 |
| LMKP | ≤ 0.2 |
| SAMC | ≤ 0.2 |
| TVLC | ≤ 0.2 |
| GKRM | ≤ 0.2 |
| KSWR | ≤ 0.2 |
| ILVV | ≤ 0.2 |
| MVAF | ≤ 0.2 |
| ATRR | ≤ 0.2 |
| ELLF | ≤ 0.2 |
| RLET | 0.783 |
| ILQC | ≤ 0.2 |
| KQTR | ≤ 0.2 |
| TDEE | ≤ 0.2 |
| NRHG | ≤ 0.2 |
| LVKP | ≤ 0.2 |
| PTQS | ≤ 0.2 |
| HPGR | ≤ 0.2 |
| DTRH | ≤ 0.2 |
| LAIC | ≤ 0.2 |

| Variant | one-hybrid fitness for binding parS DNA |
| --- | --- |
| LKMS | ≤ 0.2 |
| TRSR | ≤ 0.2 |
| MVEY | ≤ 0.2 |
| TNAS | ≤ 0.2 |
| HTKK | ≤ 0.2 |
| MFNK | ≤ 0.2 |
| SSQQ | ≤ 0.2 |
| DVQY | ≤ 0.2 |
| SESP | ≤ 0.2 |
| INSM | ≤ 0.2 |
| RNFD | ≤ 0.2 |
| ALQP | ≤ 0.2 |
| EWTE | ≤ 0.2 |
| VPKC | ≤ 0.2 |
| TVEG | ≤ 0.2 |
| CRMI | ≤ 0.2 |
| DECC | ≤ 0.2 |
| QRGP | ≤ 0.2 |
